# Results published in article PMC6919601, “Identification of Plasmodium dipeptidyl aminopeptidase allosteric inhibitors by high throughput screening” (PLoS ONE, 2019).
# In all, about 110,000 compounds went through this assay and about 230 (0.21%) showed an effect of 50% or more. Some of the results follow.
# Molecular target: DPAP1 (Plasmodium falciparum, UniProt Q8IIJ9)
# Test: primary screen, percent inhibition; read by cleavage of a fluorogenic dipeptide substrate; higher = more effect of the substance
# Parameters: species or system P. falciparum D10 trophozoite lysates; single well
# 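Further: 30 min substrate incubation versus DMSO and 10 µM JCP410 controls.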
# Chain of DPAP1 (Q8IIJ9 whole entry, looked up): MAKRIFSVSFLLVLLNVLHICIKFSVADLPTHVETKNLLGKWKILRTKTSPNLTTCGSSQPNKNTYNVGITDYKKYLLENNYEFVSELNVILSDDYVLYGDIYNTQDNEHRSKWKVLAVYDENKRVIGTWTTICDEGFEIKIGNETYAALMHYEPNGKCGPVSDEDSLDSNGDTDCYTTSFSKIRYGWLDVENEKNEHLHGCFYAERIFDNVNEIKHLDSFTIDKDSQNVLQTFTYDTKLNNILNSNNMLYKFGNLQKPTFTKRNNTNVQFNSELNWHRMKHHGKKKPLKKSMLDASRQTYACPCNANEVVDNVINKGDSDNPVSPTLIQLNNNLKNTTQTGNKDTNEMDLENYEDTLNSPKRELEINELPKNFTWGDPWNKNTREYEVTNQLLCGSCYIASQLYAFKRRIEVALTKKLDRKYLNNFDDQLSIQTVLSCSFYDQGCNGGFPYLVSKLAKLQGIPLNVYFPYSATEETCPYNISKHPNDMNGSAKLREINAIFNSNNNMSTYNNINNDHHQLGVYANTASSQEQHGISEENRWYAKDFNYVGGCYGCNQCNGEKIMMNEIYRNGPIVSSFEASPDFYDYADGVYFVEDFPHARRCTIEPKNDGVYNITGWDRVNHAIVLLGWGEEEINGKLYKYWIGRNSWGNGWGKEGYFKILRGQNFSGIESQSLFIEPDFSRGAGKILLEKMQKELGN
row,Compound,% Inhibition @ 10 uM
1,O=C1c2ccccc2C(=O)N1CCc1c[nH]c2ccc(O)cc12,4.73%
2,OCCN1CCN(CC/C=C2/c3ccccc3CSc3ccccc32)CC1,-7.31%
3,O=C(CSc1nnc(O)nc1O)c1ccc(Cl)cc1,-0.142%
4,O=C(c1ccc(Cl)cc1)n1c(=O)oc2ccccc21,0.76%
5,COc1ccc(C2CC(C(F)(F)F)n3ncc(C(=O)N(C)Cc4cn(C)nc4C)c3N2)cc1OC (stereo not shown),-2.37%
6,Cc1cccc(Oc2nc3ccccn3c(=O)c2/C=C(\C#N)C(=O)NCCc2ccccc2)c1C,2%
7,CC(O)CON1C(=O)c2ccccc2C1=O (stereo not shown),1.25%
8,Cc1cccc(-n2c(S)nnc2Cn2nc(C)cc2C)c1,-2.9%
9,N#Cc1ccccc1NC(=O)c1ccc(F)cc1,-1.38%
10,CC(NC(=O)COc1ccccc1C(C)(C)C)c1ccccc1 (stereo not shown),14.5%
11,CCc1ccc(C(Nc2ccccn2)c2ccc3cccnc3c2O)cc1 (stereo not shown),-0.85%
12,COc1ccc(NS(=O)(=O)c2ccc(NC(=O)COc3ccc(C)cc3)cc2)cc1,-1.51%
13,COc1ccc(S(=O)(=O)NCC2CCC(C(=O)NCCC(C)C)CC2)cc1 (stereo not shown),5.99%
14,CCc1ccc(-c2csc3nc4ccccc4n23)cc1,1.01%
15,O=C(O)c1ccc(Nc2nc(-c3ccc(Cl)c(Cl)c3)cs2)cc1,-0.0267%
16,CCO/C(O)=C(\C#N)c1ncc(Br)c(-c2ccccc2)n1,0.937%
17,COc1ccc(-c2c3c(=O)n(C)c(=O)n(C)c3cn2-c2ccccn2)cc1,-4.11%
18,O=C(NC1CCCCCC1)C1CCC(Cn2c(=O)[nH]c3ccsc3c2=O)CC1 (stereo not shown),-3.27%
19,CCCCNc1cc(O)c(CC(=O)Nc2ccccc2)c2cc(OC)c(OC)cc12,25.7%
20,O=C(NCc1cccs1)c1cc(-c2ccc3c(c2)OCO3)on1,-10.7%
21,Cc1ccc2c(C(=O)CN(C)C)c(C)[nH]c2c1,-5.28%
22,COc1cc(CNc2ccc(N3CCN(C(C)=O)CC3)cc2)ccc1OCc1ccc(F)cc1,3.75%

row,Compound,% Inhibition @ 10 uM
1,Cc1nc2ccccn2c(=O)c1C(=O)NCc1ccccc1Br,3.3%
2,Cc1n[nH]c(C)c1CCCCCCOc1ccccc1Cl,6.49%
3,CC1(c2ccccc2)OC(=O)C(=Cc2ccc(Br)cc2)C(=O)O1 (stereo not shown),0.146%
4,CC(=O)c1ccc(S(=O)(=O)NCc2cn3ccccc3n2)cc1,0.00665%
5,COC(=O)c1cc2oc(C)cc2n1Cc1nc(-c2ccccc2C)oc1C,-9.3%
6,CC(C)C[C@H](NC(=O)/C=C/S(=O)(=O)c1ccccc1)C(=O)N[C@@H](Cc1ccccc1)C(=O)O,-6.46%
7,Cc1cc2[nH]c3ccccc3c2c(C)n1,-1.06%
8,O=C1c2ccccc2-c2nnc(-c3ccc(O)cc3)cc21,9.74%
9,COc1ccc(-c2onc(C)c2C)cc1S(=O)(=O)NC(C)Cc1ccco1 (stereo not shown),-4.17%
10,Cc1nc(O)c2c3c(sc2n1)CCCC3,-1.11%
11,CSc1ccc(CN2C[C@@H]3C[C@H](C2)c2cccc(=O)n2C3)cc1,3.82%
12,N=C1N(c2ccccc2)C(=O)/C(=C/C(=O)c2cccs2)N1c1ccccc1,2.22%
13,NC(=O)C1CCN(Cc2c(Cl)cccc2Cl)CC1,1.05%
14,COCCCN1C(=O)/C(=C\c2cc(Br)ccc2OC)C(C(=O)OC)=C1C,-4.93%
15,COc1ccc(-c2noc(CN(C(=O)c3cc(OC)cc(OC)c3)C(C)C)n2)cc1,-4.94%
16,COC(=O)c1sccc1S(=O)(=O)N1CCc2ccccc2C1,-4.75%
17,O=C(CCCc1nnc2n3nc(-c4ccccc4)nc3c3ccccc3n12)NCCCN1CCOCC1,-4.69%
18,O=C(Nc1ccc(Cl)cc1C(=O)NCc1cccs1)c1ccc(Cl)cc1,0.528%
19,C=CCOc1ccccc1CNc1ccc(C(=O)O)cc1,0.795%
20,Cc1ccccc1C(=O)N1CCN(c2ccccn2)CC1,-0.386%
21,Cc1ccc2c(c1)-c1onc(C(=O)NC3CCN(Cc4ccccc4)CC3)c1CO2,-7.84%
22,COc1ccc2nc(Cl)c3nnnn3c2c1,-0.999%

row,Compound,% Inhibition @ 10 uM
1,c1ccc2c(c1)CCN(Cc1ccoc1)C2,3.01%
2,Clc1cccc(OCCOCCN2CCNCC2)c1Cl,6.15%
3,CC(C)Cn1cc(NC(=O)N2CCC3(CC2)OCCO3)c2ccccc2c1=O,-0.884%
4,COc1ccc(/C=c2\sc3nc(=O)c(Cc4ccccc4)nn3c2=O)c(OC)c1,0.222%
5,CC(C)(C)NS(=O)(=O)NCCc1ccncc1,-1.91%
6,Cc1ccc(CN(Cc2ccco2)C(=O)c2cccs2)cc1,-2.21%
7,O=c1[nH]c(=O)n(Cc2ccco2)c2c1C(C(F)(F)F)(C(F)(F)F)NC(Cc1ccccc1)=N2,3.87%
8,CC(C)OCCCNC(=O)C1CCCN(S(=O)(=O)N2CCOCC2)C1 (stereo not shown),2%
9,CCC(=O)OC1(C#N)CC(C)N(C)CC1C (stereo not shown),-2.03%
10,CCOc1ccc2nc(C)c(CN3CC4(C)CC3CC(C)(C)C4)c(O)c2c1 (stereo not shown),5.37%
11,CCCCOc1ccc(/C=C/C2=CC(C)(C)NC(S)=N2)cc1OCC,-3.39%
12,CCCCCOC(=O)C1=C(C)NC(=O)NC1c1ccc(Cl)cc1 (stereo not shown),2.78%
13,CC(NS(=O)(=O)c1ccc2c(c1)Cc1cc(S(=O)(=O)NC(C)C(=O)O)ccc1-2)C(=O)O (stereo not shown),4.95%
14,COc1cccc(C2CC(O)=C/C(=N/Cc3cccs3)C2)c1 (stereo not shown),2.57%
15,Cc1cc(C)cc(NC(=O)CN(c2ccc(Br)cc2)S(C)(=O)=O)c1,0.324%
16,OCCN1CCN(Cc2c3c(c(CN4CCN(CCO)CC4)c4c2CCC4)CCC3)CC1,-5.69%
17,O=C(CSc1cn(CCNC(=O)c2cccs2)c2ccccc12)NC1CCCCC1,-2.4%
18,CCCO/C(O)=C1\C(C)=NC2=C(C(=O)CC(c3ccccc3OC)C2)C1c1cccc(OC)c1OC (stereo not shown),2.25%
19,CC(NC(=O)C1CCN(C(=O)c2cnn(-c3ccccc3)c2-n2cccc2)CC1)c1ccccc1 (stereo not shown),-3.35%
20,Cc1ccc(C(=O)N2CCN(c3cccc(C)c3C)CC2)o1,2.48%
